Reference: the supplement of paper PMC4604168 (melanoma cell lines)
Some of the results follow. Single values are uncertain, as repeats are few or missing.

Assays:
Assay in all cases: cell count relative to DMSO control; melanoma cells; higher = more viable cells
Settings in all cases: library dose: low library concentration; 72 h; first compound 0.4 µM
WM115 = test system: WM115
WM1716 = test system: WM1716
WM1745 = test system: WM1745
WM3526 = test system: WM3526
WM3619 = test system: WM3619
WM451Lu = test system: WM451Lu
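Note: cell number obtained by counting DAPI-stained nuclei in high-throughput microscope images with image analysis software, screen run in 1,536-well plates.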

Row | SMILES | cell count (WM115) [%] | cell count (WM1716) [%] | cell count (WM1745) [%] | cell count (WM3526) [%] | cell count (WM3619) [%] | cell count (WM451Lu) [%]
1 | Cn1sc(=O)n(Cc2ccccc2)c1=O + CN1CCN(c2ccc3nc(-c4c(N)c5c(F)cccc5[nH]c4=O)[nH]c3c2)CC1 [Dovitinib] (partner dose 0.1 µM) | 99.8 | 107 | 112 | 95.7 | 119 | 87.4
2 | Cn1sc(=O)n(Cc2ccccc2)c1=O + Oc1nc(-c2ccc(C(F)(F)F)cc2)nc2c1CSCC2 [XAV939] (partner dose 2 µM) | 90.9 | 58.4 | 92.8 | 85.4 | 95.4 | 98.3
3 | Cn1sc(=O)n(Cc2ccccc2)c1=O + CO[C@@H]1[C@H](N(C)C(=O)c2ccccc2)C[C@H]2O[C@]1(C)n1c3ccccc3c3c4c(c5c6ccccc6n2c5c31)C(=O)NC4 [Midostaurin] (partner dose 0.08 µM) | 85.8 | 75.8 | 90.8 | 72 | 85.8 | 97.9
4 | CCCCCCCCCCCCCCCCCCOP(=O)([O-])OC1CC[N+](C)(C)CC1 [Perifosine] + COc1ccc(COc2ccc(Cc3cnc(N)nc3N)cc2OC)cc1 [GW2580] (partner dose 1 µM) | 107 | 101 | 99 | 104 | 118 | 69.2
5 | C[C@@H](N)c1ccc(C(=O)Nc2ccnc3[nH]ccc23)cc1 + CO[C@H]1C[C@@H]2CC[C@@H](C)[C@@](O)(O2)C(=O)C(=O)N2CCCC[C@H]2C(=O)O[C@H]([C@H](C)C[C@@H]2CC[C@@H](OCCO)[C@H](OC)C2)CC(=O)[C@H](C)/C=C(\C)[C@@H](O)[C@@H](OC)C(=O)[C@H](C)C[C@H](C)/C=C/C=C/C=C/1C [everolimus] (partner dose 0.02 µM) | 79.7 | 60.2 | 91 | 78.2 | 58.9 | 94.3
6 | CCCCCCCCCCCCCCCCCCOP(=O)([O-])OC1CC[N+](C)(C)CC1 [Perifosine] + C[C@]1(c2nc3c(C(N)=O)cccc3[nH]2)CCCN1 [Veliparib] (partner dose 1.4 µM) | 96.7 | 76.4 | 81.4 | 85.5 | 67.1 | 107
7 | CCCCCCCCCCCCCCCCCCOP(=O)([O-])OC1CC[N+](C)(C)CC1 [Perifosine] + Cc1ccc(NC(=O)c2cccc(N(C)C)c2)cc1NC(=O)c1ccc(O)cc1 [ZM336372] (partner dose 2 µM) | 97.6 | 103 | 77.5 | 102 | 85.1 | 102
8 | CCCCCCCCCCCCCCCCCCOP(=O)([O-])OC1CC[N+](C)(C)CC1 [Perifosine] + C#Cc1cccc(Nc2ncnc3cc(OCCOC)c(OCCOC)cc23)c1 [erlotinib] (partner dose 0.8 µM) | 85.6 | 88.6 | 89.1 | 98.9 | 85.7 | 95.9
9 | Cn1sc(=O)n(Cc2ccccc2)c1=O + CCCS(=O)(=O)Nc1ccc(F)c(C(=O)c2c[nH]c3ncc(Cl)cc23)c1F [PLX4720] (partner dose 0.08 µM) | 111 | 97.3 | 112 | 101 | 83.5 | 101
10 | Cn1sc(=O)n(Cc2ccccc2)c1=O + Cn1nnc2c(C(N)=O)ncn2c1=O [temozolomide] (partner dose 2 µM) | 89.3 | 75.8 | 96.1 | 122 | 96.8 | 89
11 | C[C@@H](N)c1ccc(C(=O)Nc2ccnc3[nH]ccc23)cc1 + CCCS(=O)(=O)Nc1ccc(F)c(C(=O)c2c[nH]c3ncc(Cl)cc23)c1F [PLX4720] (partner dose 0.08 µM) | 95.2 | 63.4 | 81.3 | 85.3 | 77.7 | 96.2
12 | Cn1sc(=O)n(Cc2ccccc2)c1=O + Oc1cc(-c2nc(-c3ccccc3)[nH]c2-c2ccncc2)ccc1Cl [L779450] (partner dose 0.2 µM) | 79.1 | 91.4 | 103 | 89.8 | 96.4 | 106
13 | C[C@@H](N)c1ccc(C(=O)Nc2ccnc3[nH]ccc23)cc1 + C=CCNC1=C2C[C@@H](C)C[C@H](OC)[C@H](O)[C@@H](C)/C=C(\C)[C@H](OC(N)=O)[C@@H](OC)/C=C\C=C(/C)C(=O)NC(=CC1=O)C2=O [Tanespimycin] (partner dose 0.002 µM) | 93 | 68.2 | 77.4 | 103 | 106 | 88.3
14 | C[C@@H](N)c1ccc(C(=O)Nc2ccnc3[nH]ccc23)cc1 + C[C@@H]1CCN(C(=O)CC#N)C[C@@H]1N(C)c1ncnc2[nH]ccc12 [CP690550] (partner dose 1 µM) | 120 | 87.9 | 79 | 112 | 135 | 93.8
15 | C[C@@H](N)c1ccc(C(=O)Nc2ccnc3[nH]ccc23)cc1 + CCN(CC)CCNC(=O)c1c(C)[nH]c(/C=C2\C(=O)Nc3ccc(F)cc32)c1C [sunitinib] (partner dose 0.4 µM) | 110 | 64.3 | 67 | 111 | 144 | 97.1
16 | Cn1sc(=O)n(Cc2ccccc2)c1=O + CN(NC(=O)CC(=O)NN(C)C(=S)c1ccccc1)C(=S)c1ccccc1 [STA4783] (partner dose 0.006 µM) | 83.8 | 60.8 | 31.1 | 84.2 | 66.3 | 80.8
17 | C[C@@H](N)c1ccc(C(=O)Nc2ccnc3[nH]ccc23)cc1 + C=C(c1ccc(C(=O)O)cc1)c1cc2c(cc1C)C(C)(C)CCC2(C)C [Bexarotene] (partner dose 2 µM) | 105 | 65 | 72.3 | 91.9 | 98.2 | 41.8
18 | C[C@@H](N)c1ccc(C(=O)Nc2ccnc3[nH]ccc23)cc1 + Cn1cncc1[C@@](N)(c1ccc(Cl)cc1)c1ccc2c(c1)c(-c1cccc(Cl)c1)cc(=O)n2C [tipifarnib] (partner dose 0.01 µM) | 97.7 | 70.7 | 77.1 | 102 | 91.2 | 87.1
19 | CCCCCCCCCCCCCCCCCCOP(=O)([O-])OC1CC[N+](C)(C)CC1 [Perifosine] + COc1ccc(Cl)c(Nc2nc3ccccc3nc2NS(=O)(=O)c2cccc(NC(=O)C(C)(C)N)c2)c1 [XL147] (partner dose 0.8 µM) | 104 | 108 | 97.8 | 105 | 91.3 | 102
20 | CCCCCCCCCCCCCCCCCCOP(=O)([O-])OC1CC[N+](C)(C)CC1 [Perifosine] + COc1ccc2c(c1)CCC1C2CCC2(C)C(NCCCCCCN3C(=O)C=CC3=O)CCC12 [U73122] (partner dose 0.4 µM) | 91.2 | 93.8 | 96.4 | 88.1 | 110 | 130
21 | CCCCCCCCCCCCCCCCCCOP(=O)([O-])OC1CC[N+](C)(C)CC1 [Perifosine] + N#Cc1c(O)c2c(-c3ccc(-c4ccccc4O)cc3)csc2[nH]c1=O [A769662] (partner dose 2 µM) | 118 | 93.8 | 91.9 | 84.1 | 82.9 | 97
22 | CCCCCCCCCCCCCCCCCCOP(=O)([O-])OC1CC[N+](C)(C)CC1 [Perifosine] + Cc1nc(Nc2ncc(C(=O)Nc3c(C)cccc3Cl)s2)cc(N2CCN(CCO)CC2)n1 [dasatanib] (partner dose 0.004 µM) | 80.1 | 95.7 | 79.7 | 104 | 119 | 94.1
23 | CCCCCCCCCCCCCCCCCCOP(=O)([O-])OC1CC[N+](C)(C)CC1 [Perifosine] + CCc1ccc(CCOc2ccc(CC3SC(=O)NC3=O)cc2)nc1 [pioglitazone] (partner dose 2 µM) | 96.1 | 56.6 | 98 | 81.8 | 89.5 | 40.9
24 | CCCCCCCCCCCCCCCCCCOP(=O)([O-])OC1CC[N+](C)(C)CC1 [Perifosine] + COc1cc(N2CCC(N3CCN(C)CC3)CC2)ccc1Nc1ncc(Cl)c(Nc2ccccc2S(=O)(=O)C(C)C)n1 [NVP-TAE684] (partner dose 0.08 µM) | 87 | 78.1 | 73.1 | 89.5 | 97.9 | 88.5
25 | C[C@@H](N)c1ccc(C(=O)Nc2ccnc3[nH]ccc23)cc1 + Cn1c(=O)n(-c2ccc(C(C)(C)C#N)cc2)c2c3cc(-c4cnc5ccccc5c4)ccc3ncc21 [NVP-BEZ235] (partner dose 0.004 µM) | 93.3 | 64.3 | 77.5 | 90.7 | 73.3 | 90.8
26 | CCCCCCCCCCCCCCCCCCOP(=O)([O-])OC1CC[N+](C)(C)CC1 [Perifosine] + CCN(CC)CCCCNc1ncc2cc(-c3cc(OC)cc(OC)c3)c(NC(=O)NC(C)(C)C)nc2n1 [PD173074] (partner dose 0.1 µM) | 96.8 | 91.4 | 97.3 | 94.7 | 81.7 | 98.5
27 | Cn1sc(=O)n(Cc2ccccc2)c1=O + Cc1cc(N2CCOCC2)cc2[nH]c(-c3c(NC[C@@H](O)c4cccc(Cl)c4)cc[nH]c3=O)nc12 [BMS536924] (partner dose 0.2 µM) | 90.1 | 92.1 | 77.6 | 93.2 | 94.6 | 99.5
28 | CCCCCCCCCCCCCCCCCCOP(=O)([O-])OC1CC[N+](C)(C)CC1 [Perifosine] + CN(C)S(=O)(=O)c1ccc2c(c1)/C(=C/c1cc3c([nH]1)CCCC3)C(=O)N2 [SU6656] (partner dose 0.4 µM) | 74.2 | 109 | 104 | 82.3 | 117 | 74.4
29 | CCCCCCCCCCCCCCCCCCOP(=O)([O-])OC1CC[N+](C)(C)CC1 [Perifosine] + CCCCCCCCc1ccc(CCC(N)(CO)CO)cc1 [fingolimod] (partner dose 2 µM) | 106 | 85.8 | 94.3 | 89 | 101 | 96.8
30 | Cn1sc(=O)n(Cc2ccccc2)c1=O + C[C@]1(c2nc3c(C(N)=O)cccc3[nH]2)CCCN1 [Veliparib] (partner dose 1.4 µM) | 112 | 96.2 | 85.9 | 97.2 | 133 | 111
